Laboratory results: PubChem BioAssay (Tox21)
Values joined by “and” are separate entries in the source; they are usually repeats but may differ in a detail not shown here. Equal values may be shown once. The shares of active, inactive and inconclusive entries below differ from those in the screen. Where the call is inconclusive, the potency comes from a doubtful curve fit. Active and inactive are the calls of the source. Unless noted, calls come from the whole dose curve; as a rule, active = well fitted cell-killing curve with a large enough effect in the repeat runs; inconclusive = weak or mixed curves, or effect the other way; inactive = flat fitted curve, though single readings scatter.

assay: qHTS assay to identify small molecule agonists of the TGF-beta/Smad signaling pathway - cell viability counter screen (AID 1346829); details: SBE-bla HEK293T viability, CellTiter-Glo luminescence, 5 h; series mostly up to 76.8 µM; activity change, negative = cytotoxicity: at the top concentration; note: nearly all actives have a fitted effect of over 45% in size; for activity change, negative = cytotoxicity: top concentration of the series differs between compounds; % is set by controls: 0 for no effect and ±100 for the full control effect
How it was run: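 Here the cytotoxicity of library compounds is measured in SBE-bla HEK 293T cells treated for 5 hr, using CellTiter-Glo added to wells already read for the beta-lactamase reporter.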
Potency is the fitted concentration of half-maximal effect; tags give direction and shape of the fitted curve or compound fluorescence and quenching.

With `CCOC(=O)C1OC1c1ccccc1` (centres undefined) as the compound, how does the Potency read?
The Potency was “inactive”.

For `CCCCCC(CO)CCC` (centres undefined), which Potency is on record?
Its Potency is inconclusive: 54.9 µM [rising, single point].

Which “activity change, negative = cytotoxicity” value does the source give for `Cc1occc1SSc1ccoc1C` here?
The value was inactive: 2.76%.

assay: qHTS assay to identify small molecule agonists of the TGF-beta/Smad signaling pathway (AID 1346859; active = well fitted activation curve with a large enough effect in the signal ratio in the repeat runs, not every such curve was filed as active; inconclusive = weak or mixed curves; the % refers to the signal ratio; for activation: % is set by controls: 0 for no effect and ±100 for the full control effect); details: SBE-bla HEK293T, TGF-beta/Smad beta-lactamase reporter, 5 h; activation: at 76.8 µM (top of the series) unless noted
How it was run: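 After overnight seeding, SBE-bla HEK 293T cells are dosed with compounds in DMSO and kept 5 hr at 37 C, 5% CO2. LiveBLAzer-type FRET substrate is then applied for 2 hr at room temperature.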

For `O=C1OC(=O)c2c(Br)c(Br)c(Br)c(Br)c21`, which “activation” value is on record?
Its value is inactive: 5.27%.

With `O=C(O)CCCCCCCCCCCBr` as the compound, how does the Potency read?
The Potency was inconclusive: 27.6 µM [rising, partial curve].

Which Potency does the source give for `CC1COC(=O)O1` (centres undefined) here?
The Potency was “inactive”.

With `CCOc1ccc2c(c1)C(C)=CC(C)(C)N2` as the compound, how does the Potency read?
Its Potency is inconclusive: 24.4 µM [activator, partial curve] and inconclusive: 49 µM [activator].

assay: qHTS assay to identify small molecule antagonists of the TGF-beta/Smad signaling pathway (AID 1346924; active = well fitted inhibition curve with a large enough effect in the signal ratio in the repeat runs, not every such curve was filed as active; inconclusive = weak or mixed curves; the % refers to the signal ratio); details: SBE-bla HEK293T, TGF-beta/Smad reporter, beta-lactamase ratio; activity, negative = inhibition: at 76.8 µM (top of the series) unless noted
How it was run: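 SBE-bla HEK 293T cells were plated overnight, then received compound in DMSO plus TGF-beta1 (added as a 0.25 ng/mL solution) and were incubated 5 h at 37 C. Beta-lactamase reporter activity was read after 2 h at room temperature with LiveBLAzer B/G FRET substrate (ex 405, em 460/530 nm).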

With `CC(C)c1nc(CN(C)C(=O)N[C@H](C(=O)N[C@@H](Cc2ccccc2)C[C@H](O)[C@H](Cc2ccccc2)NC(=O)OCc2cncs2)C(C)C)cs1` as the compound, how does the Potency read?
The Potency was inconclusive: 23.9 µM [rising, partial curve, poor fit].

Which activity, negative = inhibition does the source give for `O=C(O)CCCCCCCCCCCBr` here?
Its activity, negative = inhibition is inconclusive: -7.56%.

Which activity, negative = inhibition does the source give for `COC(=O)C1CCC(C(=O)OC)CC1` (centres undefined) here?
The activity, negative = inhibition was inconclusive: -37.9%.

Which Potency does the source give for `CC(C)OC(=O)c1cc(C(=O)OC(C)C)cc([N+](=O)[O-])c1` here?
Its Potency is inconclusive: 22.4 µM.

With `CN1C(=O)c2ccccc2C1=O` as the compound, how does the activity, negative = inhibition read?
The activity, negative = inhibition was inconclusive: 0.0977%.

For `CC1COC(=O)O1` (centres undefined), which activity, negative = inhibition is on record?
The activity, negative = inhibition was inconclusive: -6.7%.

Which activity, negative = inhibition does the source give for `CCc1ccc(C(c2ccc(CC)cc2)C(Cl)Cl)cc1` here?
Its activity, negative = inhibition is inconclusive: -39.5%.

Which activity, negative = inhibition does the source give for `COc1cccc(OC)c1C(=O)O` here?
Its activity, negative = inhibition is inconclusive: -0.0703%.

Which activity, negative = inhibition does the source give for `N=C1N=C(N)c2ccccc21` here?
Its activity, negative = inhibition is inconclusive: 4.26%.

With `NNC(=O)CP(=O)(c1ccccc1)c1ccccc1` as the compound, how does the activity, negative = inhibition read?
The activity, negative = inhibition was inconclusive: 1.33% [at 35.3 µM].

For `CCOc1ccc2c(c1)C(C)=CC(C)(C)N2`, which activity, negative = inhibition is on record?
Its activity, negative = inhibition is inconclusive: -1.1%.

Which activity, negative = inhibition does the source give for `Cc1occc1SSc1ccoc1C` here?
Its activity, negative = inhibition is inconclusive: -5.32%.
